This is an account of results in the supplement of paper PMC5641865, “A screen for kinase inhibitors identifies antimicrobial imidazopyridine aminofurazans as specific inhibitors of the Listeria monocytogenes PASTA kinase PrkA” (The Journal of Biological Chemistry, 2017).

± gives the standard deviation of the averaged measurements. The list shows a part of the results, in another mix than the full data.
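Further: End-point A600 read in BHI broth at 37 °C with 2% DMSO, inhibition computed as (1 − OD with compound plus ceftriaxone ÷ OD with ceftriaxone only) × 100.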

This assay has as its system Listeria monocytogenes 10403S. Description: growth inhibition relative to ceftriaxone-alone control; higher = stronger potentiation of ceftriaxone growth inhibition. Conditions: 10 µM; ceftriaxone 1 ug/ml; 12 h.
On to `Fc1ccc(-c2ncn(C3CCNCC3)c2-c2ccnc(Oc3cccc(F)c3)n2)cc1`, for which the growth inhibition is -2.82 ± 2.1%. Next, `Cc1cccc(Oc2nccc(-c3c(-c4ccc(F)cc4)ncn3C3CCNCC3)n2)c1C`: -10.9 ± 15%. The value for `Fc1ccc(-c2ncn(C3CCNCC3)c2-c2ccnc(Oc3cccc(C(F)(F)F)c3)n2)cc1` was -9.81 ± 3.7%; that for `Fc1ccc(-c2ncn(C3CCNCC3)c2-c2ccnc(Oc3ccc(Cl)cc3)n2)cc1` was -4.09 ± 4.8%. Next, `O=C1NC(=O)C(c2ccccc2)=C1Nc1ccccc1`: 3.12 ± 5.5%; `Fc1ccc(Oc2nccc(-c3c(-c4ccc(F)cc4)ncn3C3CCNCC3)n2)cc1`: -3.17 ± 1.3%; `COc1ccccc1C1=C(Nc2ccccc2)C(=O)NC1=O`: -1.59 ± 0.35%. Take `CC(C)(C)c1ccc(Oc2nccc(-c3c(-c4ccc(F)cc4)ncn3C3CCNCC3)n2)cc1`: the growth inhibition was -5.44 ± 11%. The value for `CS(=O)(=O)c1ccc(Oc2nccc(-c3c(-c4ccc(F)cc4)ncn3C3CCNCC3)n2)cc1` was 10.1 ± 24%; that for `O=C(O)c1ccc(Oc2nccc(-c3c(-c4ccc(F)cc4)ncn3C3CCNCC3)n2)cc1` was -5.82 ± 12%.

On to `COc1ccccc1Oc1nccc(-c2c(-c3ccc(F)cc3)ncn2C2CCNCC2)n1`, for which the growth inhibition was -5.45 ± 3.6%. Regarding `NC(=O)CCc1ccccc1Oc1nccc(-c2c(-c3ccc(F)cc3)ncn2C2CCNCC2)n1`, the growth inhibition was -10.9 ± 16%. Next, `O=C1NC(=O)C(c2ccccc2Cl)=C1Nc1cc(Cl)c(O)c(Cl)c1`: -10.2 ± 13%.

For the compound `O=C1NC(=O)C(c2cccc([N+](=O)[O-])c2)=C1Nc1cc(Cl)c(O)c(Cl)c1`, the growth inhibition was found to be 49.2 ± 4.5%. The value for `Cc1ccccc1-n1c(Cn2nc(-c3cccc(O)c3)c3c(N)ncnc32)nc2cccc(C)c2c1=O` was 18 ± 12%.
